Measured values taken from the supplement of paper PMC12632987.
The full ranking holds about 2,300 sequences; the median of “median log2 fold change of GCK-ALFA target abundance (FLAG IP / Myc IP barcode read proportion)” is about 0.095, and the lowest 2% start at about -0.47. The list shows a part of the results.

B1: LC3A_free_39_2257 (protein)
chain: AEEEREEALRRLRELAAKASPEVEAAVLRLAELLADDVEALRRLRELLERALEKGPEAVAILGQFAAEAVARIEAGEDRRAAFEELAKLAEAAIEIEEID
B2: LC3A_28_941 (protein)
chain: MTTDEDLAAVLAQAKEAAAKGEATTFTLTVTPEDTEEDVQKIIDTVEEIAELLKDIPGTGIIIDIEAGVPEEKINLISKETEKIEKKYPNVTVILALDED
B3: LC3A_28_992 (protein)
chain: SELDKQLAEALAAAKAAAAAGEPAVITIKVSGKATEEDIDKVIEAMREIAEILSGIEGSAIIIDVDGKLPQELRDKLFDAAEEIEEEYPDVTVIIALDEE
B4: LC3A_3_1795 (protein)
chain: ADAALAALLAELRAAGKSDETLAAARRALTALIERGYDAAFATLVAELRALKDIPDEILLALLEEVLELVENEDLSEAELTARIRELARLARLESEIEEL
B5: LC3A_108_165 (protein)
chain: KIVYISAEPDIFEEAAELAYEIARRTGAKVKLLADTEELAEEFRAANAEILARMKAEGLEIEVLAKTFEEAEKEAKKKYKVDVYEVVTEKGVIDVIEVTE
B6: LC3A_28_1026 (protein)
chain: SKAEERVAKAREEALAQKAAGEPVFITIKVTADTTLEDAKTIVEGIEEIVEELKDEKGINIIIDVERGVSQEVIDTLADGAERIEEKYPNVNVIIALEEE
B7: LC3A_28_933 (protein)
chain: MSVEEIIAAIEATAAEAIAAGEDALIEVEIGSDTTVEEAERIMDKLEEEAARLSKAGLKVDVVIDLDNVSQEVLDTIMKKAEEIEKKYPNVNVIIALDEE
B8: LC3A_45_1966 (protein)
chain: MYLATVDLLVPNEEYEKAKEVLEKAAKEIEEEDPDTVKVTVEEDEATKEEDEKEGYRYIIVKVEAKTKQEALDIADKIVDRLEEAGIKGMAAIISVEEIE
B9: LC3A_3_1717 (protein)
chain: SEEIKKEIIEELKKKGASEETIEAAKELLDALEKKGYEEAMKTLLEEIKKAEGISSEILLNTLEELLHIVKNENLSEEELIKKIKEEFKIAKNENEIIEL
B10: LC3A_28_904 (protein)
chain: SKAIESAEKALEEVKKAVEAGDQSPLVLEVDAPSDEEDVEKFLELLEEIAREASKLKGVSIIIDIDEEVSEENKDKIIDKAEELEEKYPNVTIIIALPES
B11: LC3A_45_1964 (protein)
chain: MYRATIDLLVPRADVERVRAAVRETAEALRAEYGDRVEFDLERLDASAAATADEEEVYLELDIYADTKELALDAADRILAAIEAAVGRPVAAIISVEEVP
B12: LC3A_28_1235 (protein)
chain: NAVEKQIEAAKAEVEAAVAAGEEALVELTVTKETTEEDVEKIIKAMEEIAALAATLPALTIIIDVERGVKQEHIDKLADAADAIEAKYPNVTVIIALEEE
B13: LC3A_3_1634 (protein)
chain: LDERVAATLERLRAAGASEETLEAFRRTAELLKARGYDRALETLIEETERLLDLPDELLLDFYRDVLAYLETEDADEETVIKEIRRLARTARAEGEIIEL
B14: LC3A_3_1741 (protein)
chain: MEERLEEARERLEELGLSEEVVEAALRVVEALLERGFEEAVETLLELLEELKDLPDDILLAMLEDILRVVETEDLSEEEVIALIREEASVARSEAEIIEL
B15: LC3A_3_1826 (protein)
chain: MEEEIAATIARLKAAGHSQETIDAFKEAADALLEKGYYNTLKTLIELMDENVDMPSELLLELFEEVLKLVKETDLSEEELSKKVKELADLYKNEYEIEEL
B16: LC3A_free_8_2551 (protein)
chain: NSQEFAEKVSEIIDEAEEKVKKILTENGVDREKRLLLELLFGEIIIEVISLRDKSKEEIAKAAKEGLEEVKEEAESLDEETKAKVNAVIDEAEAKIEALL
B17: LC3A_28_755 (protein)
chain: ADIEGTIKEAIERAKKAKEEGKEEVIEITVPAGATQADIDKVIEGMEEIAEINKDMKRTTILVNVEAGVAQENLDKLIDAGEEIEEKYPNVTVIFALDEE
B18: LC3A_free_46_2303 (protein)
chain: YRAEIDIDLGGLDEAGMKALVDELVARFKAIAAEHGAKIDIEVEITTDEEGETFARIRITITAPDKETLQAAVTAIIDEVDELTKETGAAALISVEFHEE
B19: LC3A_free_8_2460 (protein)
chain: SSQAIVDAAVAGLDALEDEVVAKLKALGKSRLDILDMELVIGSTIADVISKVDDSPEAILEATKEGLERILEEAKKIGEEVAKLAEKKAEEILAKIKELM
B20: LC3A_28_1331 (protein)
chain: SHIEEELERAEKEAREALERGEDVLLEVKITGSTTLEEAEYMMEKLEEIVEEVAPHRKVSIVIDVDSSVSQEVIDLIAEKAEEIEEKYPNATVIIALDED
B21: LC3A_28_686 (protein)
chain: DALTEKLLKQVKEAEEKLLAEDGATVTITIEEPLSEEATEALIKALKEMAEKVKDKKNVTIIISLSRKVSQETIDALADAAEEIEKKYPNITVIIALEER
B22: LC3A_28_768 (protein)
chain: MTIEEEVAAAIAEAKAAVAAGEEAVITINVPDGTTEEDVEKVIKGLEEIAEITKDMPRTAIIVNIDGGVKQENIDKLLDKGEEIEKKYPNVTVIFALDEE
B23: LC3A_141_377 (protein)
chain: RTVTFELVAEGETPEEVVRRMEELEARVLAAYDALGGGEVRVRITVTLTDRETGEVTVEEEEFTADREGIAMALDGALITAASAVMRSPTDIRVTVTLEA
B24: LC3A_74_2078 (protein)
chain: ALTPEESETILEALAQAELLRLLAQEHPERREELLEKAERLREAAEEVIKKSGLDLELYESGGEVLAELWLDKENITVEEALKRAEELLKKVEEILKKLE
B25: LC3A_147_454 (protein)
chain: KVYVITVDALFKNDKELAKEVEEKIKKIAEENGAEVEVEFEEEQVSPTTTEYYLRVTLKTTDEEKAQKAEDEVSELLDETLEKHPEKFLGAIISFEVEEE
B26: LC3A_147_426 (protein)
chain: MVVEVDILVKGEEAVEEVKERFKAIAEELKAKGYKVELKIEVEKLDENTYYIHVTLKVEAETEEDAEEAKNYVLDKIDEIIEELKDRILGSLISVELDEE
B27: LC3A_28_1141 (protein)
chain: SSLVEEAKEKIKADAEADKDEPEVLLRVTVTSSMTVEEAKEIMDYVEEVVEEKKDKETIYIVVDATEPISQEVLDTIVEKLEEIEKKYPNVKSIIALPED
B28: LC3A_3_1709 (protein)
chain: GEELLEEARKILEEQGRSEETIKAVLEALKALLEKGYEEAAKEFIELLKEAKDLSDEIVLDFAEDVKYYVETEDLSEEEVIELIKEEYEIAKNEQEIEEL
B29: LC3A_28_1018 (protein)
chain: SELEEQIEEIEKEVEEAIEKGEDVVVTLEIKGSMSEEEVREAMERVKEIVLEGAEKGKVDLVIDVDKDVSQEKLDIVLEAADEIEEKAPNVNVIIALEER

Target: MAP1LC3A, Q9H492
Assay: median log2 fold change of GCK-ALFA target abundance (FLAG IP / Myc IP barcode read proportion) (log2 ratio); each designed protein is fused to an ALFA-tag nanobody in HEK293 cells to bring the named protein to FLAG-tagged glucokinase (GCK); Myc marks an untargeted standard; higher = target protein stabilised (more abundant)
Conditions: target protein: 3xFLAG-MCP-GCK-ALFA reporter; HEK293 landing pad (RPLP)
Outline: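 HEK293 landing-pad cells received a recombined binder library fused to the ALFA nanobody and were induced with 2 μg mL^−1 doxycycline, then transfected with a plasmid encoding a FLAG-tagged target and a Myc-tagged standard. Lysates were collected after 48 h for anti-FLAG and anti-Myc immunoprecipitation, and the circular RNA barcodes were reverse transcribed, amplified and sequenced. Target abundance for each binder is the median log2 ratio of FLAG to Myc barcode read proportions. Barcodes had to reach a proportion of at least 10^−7 in both replicates, each binder needed at least 3 barcodes per replicate, a pseudocount of 10^−6 was applied, and the two replicates were pooled.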

In order of rising “median log2 fold change” value:
1. B7  -0.291
2. B10  -0.229
3. B24  -0.228
4. B17  -0.196
5. B26  -0.175
6. B16  -0.172
7. B29  -0.171
8. B11  -0.106
9. B8  -0.0963
10. B23  -0.0212
11. B2  -0.0159
12. B5  0.00307
13. B20  0.0179
14. B22  0.0185
15. B25  0.0398
16. B18  0.0451
17. B6  0.0497
18. B28  0.0543
19. B12  0.0727
20. B14  0.0728
21. B3  0.078
22. B27  0.109
23. B21  0.115
24. B4  0.163
25. B15  0.186
26. B1  0.194
27. B19  0.228
28. B13  0.272
29. B9  0.399
